Assay in all cases: Primary Screen for Target Class Profiling of Small Molecule Inhibitors of Methyltransferases
The target in experiment [1] is Glycine N-methyltransferase (Homo sapiens) (UniProt Q14749). Particulars: purified enzyme, MTase-Glo SAH luminescence; measured here: GNMT inhibition; at 40 µM; stronger effect = lower value. Put shortly: (§1)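 Each enzyme was reacted with SAM and its substrate, with compounds tested once at 40 uM; SAH formed was read by MTase-Glo luminescence.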
In experiment [2] the target is Guanidinoacetate N-methyltransferase (Homo sapiens) (UniProt Q14353). Particulars: purified enzyme, MTase-Glo SAH luminescence; measured here: GAMT inhibition; at 40 µM; stronger effect = lower value. An outline of the steps:
as §1

Experiment [3] addresses Histamine N-methyltransferase (Homo sapiens) (UniProt P50135). Particulars: purified enzyme, MTase-Glo SAH luminescence; measured here: HNMT inhibition; at 40 µM; stronger effect = lower value. An outline of the steps: as §1
Experiment [4] addresses Nicotinamide N-methyltransferase (Homo sapiens) (UniProt P40261). Particulars: purified enzyme, MTase-Glo SAH luminescence; measured here: NNMT inhibition; at 40 µM; stronger effect = lower value. An outline of the steps:
as §1

The target of experiment [5] is Phenylethanolamine N-methyltransferase (Homo sapiens) (UniProt P11086). Particulars: purified enzyme, MTase-Glo SAH luminescence; measured here: PNMT inhibition; at 40 µM; stronger effect = lower value. Put shortly:
as §1

The list shows a part of the results. Further columns of the screen follow, without active or inactive calls.
On the % scale 0 is the no-effect control and ±100 the full control effect.

Regarding `OCC1(Cc2ccccc2)CCCN(Cc2cn[nH]c2-c2ccc(F)cc2)C1` (stereo not drawn), the activity change, negative = inhibition was -56.6% in experiment [1]; -2.42% in experiment [2]; -9.29% in experiment [3]; -10.3% in experiment [4]; -1.83% in experiment [5].
In the same order, the values of `COc1ccc2cc3n(c2c1)CC(C)(C(=O)NC1CCCCC1)N(CCCc1ccccc1)C3=O` (stereo not drawn) are 3.79%, 0.121%, 5.8%, 7.21% and 0.078%.
In the same order, the values of `CC(C)(C)c1cc(C[C@H]2CNCC[C@H]2CC(=O)NC2CCCCC2)no1` are -5.89%, -9.36%, -4.67%, -19.5% and -14.5%.
The corresponding values for `COc1ccc(-c2nnc3c4ccccc4c(C)nn23)cc1S(=O)(=O)N1CCC(C)CC1` are 2.69%, 0%, 10.2%, 16.9% and 2.25%.
Regarding `CCc1ccc(-c2cc3n(n2)CC(C)(C(=O)NC2CCCCCC2)N(CC)C3=O)cc1` (stereo not drawn), the activity change, negative = inhibition in experiment [1] is 1.16%; in experiment [2] it was 0%; in experiment [3], 2.71%; in experiment [4], 5.89%; in experiment [5], 2.49%.
On to `O=C(N[C@H]1CO[C@H]2[C@@H]1OC[C@@H]2Nc1nccc(-c2ccco2)n1)c1ccco1`, for which the activity change, negative = inhibition in experiment [1] was -19.4%; in experiment [2], -4.39%; in experiment [3], -1.53%; in experiment [4], -10.4%; in experiment [5], 2.6%.
With `CC(C)[C@@H](CS(=O)(=O)C(C)C)N1C(=O)[C@@](C)(CC(=O)O)C[C@H](c2cccc(Cl)c2)[C@H]1c1ccc(Cl)cc1`, the activity change, negative = inhibition was 0.975% in experiment [1]; 4.9% in experiment [2]; 10.7% in experiment [3]; -18% in experiment [4]; 8.08% in experiment [5].
The corresponding values for `Cc1cccc(Cn2nc3n(CC(C)C)c(=O)c4ccc(C(=O)NC5CCCC5)cc4n3c2=O)c1` are 0.591%, 1.16%, 4.24%, 1.04% and 3.81%.
In the same order, the values of `COCCN(C)Cc1ccc(CC2CCN(S(=O)(=O)c3ccccc3)CC2)cc1` are -4.37%, 3.19%, -15.9%, -8.2% and -4.41%.
In the same order, the values of `CC(C)[C@@H](c1ccc(C(F)(F)F)cc1CN(Cc1cc(C(F)(F)F)cc(C(F)(F)F)c1)c1nnn(C)n1)N1CCC(C(=O)O)CC1` are -5.07%, 16.6%, 3.54%, -14.3% and -1.59%.
As to `CCCN1C(=O)c2c(C(=O)NCCC(C)C)ncn2CC1(C)C(=O)NCc1ccc(F)cc1` (stereo not drawn), the activity change, negative = inhibition in experiment [1] worked out at 2.55%; in experiment [2] it was 1.42%; in experiment [3], 4.95%; in experiment [4], 0.736%; in experiment [5], 7.91%.
The corresponding values for `O=C(O)C[C@H]1CCC(=O)[C@@H]1C/C=C\CCO` are -0.139%, -2.55%, 4.04%, -12.4% and -10.9%.
In the same order, the values of `COCc1noc([C@@H]2CC(F)(F)CN2C(=O)Cc2cccc(F)c2)n1` are 0.28%, 8.34%, 1.48%, -1.94% and -5.52%.
Consider `COc1ccc2cc3n(c2c1)CC(C)(C(=O)NC1CCCCC1)N(C1CCCC1)C3=O` (stereo not drawn), for which the activity change, negative = inhibition in experiment [1] was 2.72%; in experiment [2], -1.71%; in experiment [3], 4.81%; in experiment [4] it was -3.72%; in experiment [5], -2.09%.
In the same order, the values of `CCCn1c(=O)c2ccccc2n2c(SCC(=O)NCc3ccccc3)nnc12` are 5.05%, 1.08%, 13.3%, 5.65% and 8.9%.
On to `O=Nc1c2[nH]c3ccccc3nc-2c2ccccc12`, for which the activity change, negative = inhibition was -4.37% in experiment [2], -30.2% in experiment [4] and -27% in experiment [5].

Values taken from PubChem BioAssay AID1745853 (National Center for Advancing Translational Sciences (NCATS), 2022).
